# Assay results published in the supplement of paper PMC8728848.
# Some of the results follow.
# What was measured:
# Assay in all cases: glycan array binding signal (z-score within array); higher = stronger binding
# Conditions in all cases: glycan notation: IUPAC condensed, linker removed
# Fuc(a1-2)Gal = target: Fuc(a1-2)Gal
# How it was run: (§1)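 Columns mapping to the same glycan were averaged after glycan names were converted to IUPAC-condensed notation. The data come from 3228 arrays in the Consortium for Functional Glycomics database, limited to those with an available protein sequence. Binding is reported as a within-array Z-score averaged across arrays of one protein sequence and across linkers.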
# Fuc(a1-2)Gal(b1-3)GalNAc = target: Fuc(a1-2)Gal(b1-3)GalNAc
# How it was run: as §1
# [1] = target: Fuc(a1-2)Gal(b1-3)GalNAc(a1-3)[Fuc(a1-2)]Gal(b1-4)Glc
# How it was run: as §1
# [2] = target: Fuc(a1-2)Gal(b1-3)GalNAc(a1-3)[Fuc(a1-2)]Gal(b1-4)GlcNAc
# How it was run: as §1
# [3] = target: Fuc(a1-2)Gal(b1-3)GalNAc(b1-3)Gal
# How it was run: as §1
# [4] = target: Fuc(a1-2)Gal(b1-3)GalNAc(b1-3)Gal(a1-4)Gal(b1-4)Glc
# How it was run: as §1
# [5] = target: Fuc(a1-2)Gal(b1-3)GalNAc(b1-4)[Neu5Ac(a2-3)]Gal(b1-4)Glc
# How it was run: as §1
# Fuc(a1-2)Gal(b1-3)GlcNAc = target: Fuc(a1-2)Gal(b1-3)GlcNAc
# How it was run: as §1
# [6] = target: Fuc(a1-2)Gal(b1-3)GlcNAc(b1-2)Man(a1-3)[Fuc(a1-2)Gal(b1-3)GlcNAc(b1-2)Man(a1-6)]Man(b1-4)GlcNAc(b1-4)GlcNAc
# How it was run: as §1
# [7] = target: Fuc(a1-2)Gal(b1-3)GlcNAc(b1-2)Man(a1-3)[Fuc(a1-2)Gal(b1-3)GlcNAc(b1-2)Man(a1-6)]Man(b1-4)GlcNAc(b1-4)[Fuc(a1-6)]GlcNAc
# How it was run: as §1
# [8] = target: Fuc(a1-2)Gal(b1-3)GlcNAc(b1-3)Gal(b1-4)Glc
# How it was run: as §1
# [9] = target: Fuc(a1-2)Gal(b1-3)GlcNAc(b1-3)GalNAc
# How it was run: as §1
# [10] = target: Fuc(a1-2)Gal(b1-3)GlcNAc(b1-3)[Fuc(a1-3)[Gal(b1-4)]GlcNAc(b1-6)]Gal(b1-4)Glc
# How it was run: as §1
# [11] = target: Fuc(a1-2)Gal(b1-3)GlcNAc(b1-3)[Gal(b1-4)GlcNAc(b1-6)]Gal(b1-4)Glc
# How it was run: as §1
# [12] = target: Fuc(a1-2)Gal(b1-3)GlcNAc(b1-3)[Neu5Ac(a2-6)Gal(b1-4)GlcNAc(b1-6)]Gal(b1-4)Glc
# How it was run: as §1
# [13] = target: Fuc(a1-2)Gal(b1-3)[Fuc(a1-4)]GlcNAc
# How it was run: as §1
# [14] = target: Fuc(a1-2)Gal(b1-3)[Fuc(a1-4)]GlcNAc(b1-2)Man(a1-3)[Fuc(a1-2)Gal(b1-3)[Fuc(a1-4)]GlcNAc(b1-2)Man(a1-6)]Man(b1-4)GlcNAc(b1-4)GlcNAc
# How it was run: as §1
# [15] = target: Fuc(a1-2)Gal(b1-3)[Fuc(a1-4)]GlcNAc(b1-3)[Fuc(a1-3)[Gal(b1-4)]GlcNAc(b1-6)]Gal(b1-4)Glc
# How it was run: as §1
# [16] = target: Fuc(a1-2)Gal(b1-3)[Fuc(a1-4)]GlcNAc(b1-3)[Gal(b1-4)GlcNAc(b1-6)]Gal(b1-4)Glc
# How it was run: as §1
# Fuc(a1-2)Gal(b1-4)Glc = target: Fuc(a1-2)Gal(b1-4)Glc
# How it was run: as §1
# Fuc(a1-2)Gal(b1-4)Glc6S = target: Fuc(a1-2)Gal(b1-4)Glc6S
# How it was run: as §1
# Fuc(a1-2)Gal(b1-4)GlcNAc = target: Fuc(a1-2)Gal(b1-4)GlcNAc
# How it was run: as §1
# [17] = target: Fuc(a1-2)Gal(b1-4)GlcNAc(b1-2)Man(a1-3)[Fuc(a1-2)Gal(b1-4)GlcNAc(b1-2)Man(a1-6)]Man(b1-4)GlcNAc(b1-4)GlcNAc
# How it was run: as §1
# [18] = target: Fuc(a1-2)Gal(b1-4)GlcNAc(b1-2)Man(a1-3)[Fuc(a1-2)Gal(b1-4)GlcNAc(b1-2)Man(a1-6)]Man(b1-4)GlcNAc(b1-4)[Fuc(a1-6)]GlcNAc
# How it was run: as §1
# [19] = target: Fuc(a1-2)Gal(b1-4)GlcNAc(b1-2)[Fuc(a1-2)Gal(b1-4)GlcNAc(b1-4)]Man(a1-3)[Fuc(a1-2)Gal(b1-4)GlcNAc(b1-2)Man(a1-6)]Man(b1-4)GlcNAc(b1-4)GlcNAc
# How it was run: as §1
# [20] = target: Fuc(a1-2)Gal(b1-4)GlcNAc(b1-3)Gal(b1-4)GlcNAc
# How it was run: as §1
# [21] = target: Fuc(a1-2)Gal(b1-4)GlcNAc(b1-3)Gal(b1-4)GlcNAc(b1-3)Gal(b1-4)GlcNAc
# How it was run: as §1
# [22] = target: Fuc(a1-2)Gal(b1-4)GlcNAc(b1-3)GalNAc
# How it was run: as §1
# [23] = target: Fuc(a1-2)Gal(b1-4)GlcNAc(b1-3)[Fuc(a1-2)Gal(b1-4)GlcNAc(b1-6)]GalNAc
# How it was run: as §1
# [24] = target: Fuc(a1-2)Gal(b1-4)GlcNAc6S
# How it was run: as §1
# [25] = target: Fuc(a1-2)Gal(b1-4)[Fuc(a1-3)]GlcNAc
# How it was run: as §1
# [26] = target: Fuc(a1-2)Gal(b1-4)[Fuc(a1-3)]GlcNAc(b1-2)Man(a1-3)[Fuc(a1-2)Gal(b1-4)[Fuc(a1-3)]GlcNAc(b1-2)Man(a1-6)]Man(b1-4)GlcNAc(b1-4)GlcNAc
# How it was run: as §1
# [27] = target: Fuc(a1-2)Gal(b1-4)[Fuc(a1-3)]GlcNAc(b1-2)[Fuc(a1-2)Gal(b1-4)[Fuc(a1-3)]GlcNAc(b1-4)]Man(a1-3)[Fuc(a1-2)Gal(b1-4)[Fuc(a1-3)]GlcNAc(b1-2)Man(a1-6)]Man(b1-4)GlcNAc(b1-4)GlcNAc
# How it was run: as §1
# [28] = target: Fuc(a1-2)Gal(b1-4)[Fuc(a1-3)]GlcNAc(b1-3)Gal(b1-4)[Fuc(a1-3)]GlcNAc
# How it was run: as §1
# [29] = target: Fuc(a1-2)Gal(b1-4)[Fuc(a1-3)]GlcNAc(b1-3)Gal(b1-4)[Fuc(a1-3)]GlcNAc(b1-3)Gal(b1-4)[Fuc(a1-3)]GlcNAc
# How it was run: as §1
# [30] = target: Fuc(a1-2)Gal(b1-4)[Fuc(a1-3)]GlcNAc(b1-3)GalNAc
# How it was run: as §1
# Fuc(a1-2)Gal6S(b1-4)Glc = target: Fuc(a1-2)Gal6S(b1-4)Glc
# How it was run: as §1
binder,measurement,setting,value
Gz-CVNH (Gibberella zeae) (protein) MGSSHHHHHHSSGLVPRGSHMGNFHESSNNIWLEDGHILHAECGNGEGDYVESTLDLDYYIGNDDGSFSWGGENFSGSASNITLDIEGDDNIPVLRAELNPMDGDPVEANVNLSERIGNDCGTLIFLA,glycan array binding signal (z-score),Fuc(a1-2)Gal,-0.121
same,glycan array binding signal (z-score),Fuc(a1-2)Gal(b1-3)GalNAc,-0.139
same,glycan array binding signal (z-score),[1],-0.063
same,glycan array binding signal (z-score),[2],-0.156
same,glycan array binding signal (z-score),[3],0.034
same,glycan array binding signal (z-score),[4],-0.15
same,glycan array binding signal (z-score),[5],-0.122
same,glycan array binding signal (z-score),Fuc(a1-2)Gal(b1-3)GlcNAc,-0.131
same,glycan array binding signal (z-score),[6],-0.072
same,glycan array binding signal (z-score),[7],-0.109
same,glycan array binding signal (z-score),[8],-0.135
same,glycan array binding signal (z-score),[9],-0.133
same,glycan array binding signal (z-score),[10],-0.161
same,glycan array binding signal (z-score),[11],-0.144
same,glycan array binding signal (z-score),[12],-0.05
same,glycan array binding signal (z-score),[13],-0.141
same,glycan array binding signal (z-score),[14],0.062
same,glycan array binding signal (z-score),[15],-0.125
same,glycan array binding signal (z-score),[16],-0.136
same,glycan array binding signal (z-score),Fuc(a1-2)Gal(b1-4)Glc,-0.154
same,glycan array binding signal (z-score),Fuc(a1-2)Gal(b1-4)Glc6S,-0.096
same,glycan array binding signal (z-score),Fuc(a1-2)Gal(b1-4)GlcNAc,-0.133
same,glycan array binding signal (z-score),[17],-0.117
same,glycan array binding signal (z-score),[18],-0.105
same,glycan array binding signal (z-score),[19],-0.106
same,glycan array binding signal (z-score),[20],-0.155
same,glycan array binding signal (z-score),[21],-0.164
same,glycan array binding signal (z-score),[22],-0.109
same,glycan array binding signal (z-score),[23],-0.095
same,glycan array binding signal (z-score),[24],-0.157
same,glycan array binding signal (z-score),[25],-0.125
same,glycan array binding signal (z-score),[26],0.021
same,glycan array binding signal (z-score),[27],0.125
same,glycan array binding signal (z-score),[28],-0.115
same,glycan array binding signal (z-score),[29],-0.072
same,glycan array binding signal (z-score),[30],0.181
same,glycan array binding signal (z-score),Fuc(a1-2)Gal6S(b1-4)Glc,-0.135
